# Results published in PubChem BioAssay AID720542 (National Center for Advancing Translational Sciences (NCATS), 2013).
# In all, about 360,000 compounds went through this assay and about 740 (0.21%) were called active. The inconclusive results got no clear call from the source; some entries with a clear call stand among them for comparison. The call rests on the fitted dose curve; in most records, active means well fitted inhibition curve with a large enough effect; inconclusive means small, poorly fitted or top-dose-only effect; inactive means no such curve, though single readings can be large or run the other way. No potency is given beside an inconclusive call; the fits are too rough.
# Tested on: Plasmodium falciparum AMA1 (3D7) - RON2 peptide interaction
# Experiment: qHTS for Inhibitors of AMA1-RON; Towards Development of Antimalarial Drug Lead: Primary Screen; further: nearly all actives have a fitted effect of over 45% in size;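 on activity change, negative = inhibition: 0% = vehicle wells and -100% = peptide control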
# Details: AlphaScreen AMA1-biotinylated RON2 peptide binding; activity change, negative = inhibition: at 58.2 µM (top of the series) unless noted
# Outline: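 AMA1 (3D7) with his tag at 25 nM final met compounds first, then biotinylated RON2 peptide at 25 nM; detection used donor plus acceptor beads, 10 µg/mL apiece, read by AlphaScreen after 30 min at room temperature.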
# Potency means the concentration at half of the fitted maximal effect; tags describe the fitted curve by direction and shape.
Structure (SMILES),Potency,"activity change, negative = inhibition"
COc1ccc(N2CCN(C(=O)CN(c3cccc(OC)c3)S(=O)(=O)c3ccccc3)CC2)cc1,"inconclusive [inhibitor, single point]",–
Oc1cc2c(cc1CN1CCN(c3cccc(C(F)(F)F)c3)CC1)CCC2,"inconclusive [inhibitor, single point]",–
COC(=O)c1cccc(NC(=O)/C=C/c2ccc3c(c2)OCO3)c1,–,inactive: 6.93% [at 11.6 µM]
CC1CCCCN1C(=S)NCCc1ccccc1 (centres undefined),"inconclusive [inhibitor, single point]",–
CC(NCc1ccc([N+](=O)[O-])cc1)C1COc2ccccc2O1 (centres undefined),"inconclusive [inhibitor, single point]",–
CCOc1ccc(C(=O)CSCC(=O)O)cc1,inactive,–
O=S(=O)(c1ccccc1C(F)(F)F)N1CCN(CC(O)COc2ccccc2F)CC1 (centres undefined),"inconclusive [inhibitor, single point]",–
COc1cccc(C(=O)N2CCN(Cc3ccccc3Br)CC2)c1,"inconclusive [inhibitor, single point]",–
COC(=O)c1sccc1NC(=O)Nc1ccc(C)c(C)c1,inactive,–
COc1cccc(-c2cnc3c(NC=O)cc(-c4ccc(O)c(OC)c4)cn23)c1,inactive,–
Cc1ccc2sc(N(CCCN(C)C)C(=O)c3ccc(S(=O)(=O)N(C)C4CCCCC4)cc3)nc2c1C,"inconclusive [inhibitor, partial curve]",–
C=CCn1c(SCC(=O)NCCOC)nc2scc(-c3ccco3)c2c1=O,"inconclusive [inhibitor, partial curve]",–
CCOc1cc2c(cc1OCC)-n1cccc1C(c1ccccc1O)NC2 (centres undefined),inactive,–
O=C(CCCC1=NS(=O)(=O)c2ccccc2N1)N1CCN(c2ccc([N+](=O)[O-])cc2)CC1,inactive,–
CCOC(=O)C1(CCCc2ccccc2)CCN(C(=O)C2=C(C)OCCO2)CC1,"inconclusive [inhibitor, full curve]",–
CN(C)c1ccc(CNC(=O)C2(C)Cc3c(-c4ccc5c(c4)OCO5)ccnc3O2)cc1 (centres undefined),active: 28.2 µM,–
Cc1ccccc1-c1cc2c(c3c1ccn3C)C1CCC2C1 (centres undefined),"inconclusive [inhibitor, single point]",–
Cc1[nH]n(-c2ccccc2)c(=O)c1S(=O)(=O)c1ccccc1,"inconclusive [inhibitor, single point]",–
CC1(c2ccc3ccccc3c2)NC(=O)N(CC(=O)N2CCC(C(N)=O)CC2)C1=O (centres undefined),"inconclusive [inhibitor, full curve]",–
